Values marked as one replicate rest on one cluster of the flow cell; about a third of the high ones do not repeat.
The sequences below were run on ATP (assay: switch fluorescence ratio, 500 uM ATP over buffer (Cy3 cluster intensity, sum of 5 cycles each) (fold (ratio)); higher = stronger signal-on switching upon ATP binding; sequences stand for … in TCGTCGGCAGCGTCAGATGTGTATAAGAGACAGTTTTTTTTTTTTTTTTTTTTTTTTT…TC). Details: aptamer strand: ATP DNA aptamer (quencher-CACCTGGGGGAGTATTGCGGAGGAAGG + anchor), 100 nM annealed; ATP concentration: 500 uM; one replicate.
In short: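 Switching-strand clusters labelled with Cy3 on a modified Illumina MiSeq flow-cell were annealed to 100 nM quencher-labelled ATP aptamer, imaged in selection buffer, and re-imaged after 15 min with 500 uM ATP at 22 °C. This was done over five cycles with NaOH stripping and re-annealing in between. The fluorescence ratio is summed target-cycle over summed buffer-cycle Cy3 intensity per cluster, averaged per switch-domain sequence, excluding clusters outside 100-1000 RFU.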
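Further: ATP exposure 15 min at 22 °C before imaging.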

Sequence | switch fluorescence ratio
ACGGACCACC | 1.46
ACGGACTCTC | 1.26
ACGGATACAA | 1.11
ACGGATAGGT | 1.02
ACGGATGAGA | 1.05
ACGGATGCTC | 1.05
ACGGCAGCAG | 1.06
ACGGCAGGGC | 1.06
ACGGCCAGTA | 0.982
ACGGCCGTGT | 1.02
ACGGGAAACG | 1.01
ACGGGAAAGG | 1.08
ACGGGAATCT | 1.03
ACGGGACCCG | 0.968
ACGGGAGAAA | 1.05
ACGGGATAGT | 1.09
ACGGGCACTG | 1.11
ACGGGCATTG | 1
ACGGGCGGAT | 0.973
ACGGGGAATA | 1.09
ACGGGGGTCG | 0.97
ACGGGGTCTT | 0.99
ACGGGTAGGA | 1
ACGGTACCTT | 1.42
ACGGTACGGT | 1.16

Sequence | switch fluorescence ratio
ACGGTAGGGA | 1.05
ACGGTCAGGC | 1.04
ACGGTGCTTA | 1.02
ACGGTGGGGT | 1.02
ACGGTGGGTG | 1.01
ACGGTTATGG | 1.03
ACGGTTGCAC | 1.08
ACGTAACGG | 1.3
ACGTAATGGT | 1.24
ACGTACGGTA | 1.4
ACGTAGAAAG | 1.08
ACGTAGACGA | 1.11
ACGTAGAGTT | 1.05
ACGTAGGAAT | 1.02
ACGTCAGTGC | 1.21
ACGTCATTGG | 1.13
ACGTCATTGT | 1.13
ACGTCCGT | 1
ACGTCGATA | 1.03
ACGTCTACCT | 1.35
ACGTCTAGAA | 1.02
ACGTCTATTG | 1.03
ACGTCTCATC | 1.02
ACGTCTGGCA | 1.03
ACGTGAATTA | 1.05

Sequence | switch fluorescence ratio
ACGTGATATT | 1.18
ACGTTACCGC | 1.55
ACGTTAGTAG | 0.949
ACGTTCAGCC | 1.04
ACGTTCGCAG | 1.13
ACGTTCGGTG | 1.03
ACGTTGCATA | 1.13
ACGTTGTCAG | 1.03
ACGTTGTTCT | 1.01
ACGTTTACAC | 1.56
ACGTTTAGCC | 1.11
ACGTTTTACG | 1.01
ACTAAAAAAG | 1.01
ACTAAAAACG | 1.02
ACTAAAGAAT | 0.976
ACTAAGCAAA | 1.41
ACTAAGGACT | 1.05
ACTAATTACC | 1.07
ACTAATTGTT | 1.01
ACTACAAAGG | 1.08
ACTACATCTA | 1.06
ACTACATGCT | 1.03
ACTACCTAAT | 1.02
ACTACGATTT | 1.05
ACTACGTATT | 1.18

Sequence | switch fluorescence ratio
ACTACTGGGC | 1.12
ACTACTTACT | 1.28
ACTACTTTGA | 1.05
ACTAGCCGAG | 1.04
ACTAGCGAAC | 1.57
ACTAGCGACA | 1.01
ACTAGCTGGT | 0.972
ACTAGGTCGA | 1.02
ACTAGTAGTG | 0.981
ACTAGTTAAA | 1.04
ACTATAGGGC | 0.985
ACTATCAAAA | 0.941
ACTATCTTTA | 1.04
ACTATGGTTC | 0.961
ACTATGTAA | 1.02
ACTATTTCGT | 0.981
ACTCAAGGT | 1.01
ACTCAGAAGT | 1.04
ACTCATCTTT | 1.03
ACTCATGTGG | 1.02
ACTCCCGGTC | 1.88
ACTCCCGTTT | 1.2
ACTCCCTTGC | 3.54
ACTCGACAGT | 1.11
ACTCGATAAG | 1.03

— the supplement of paper PMC10126150
